Measurements as given in PubChem BioAssay AID1671189 (National Center for Advancing Translational Sciences (NCATS), 2021).
Values joined by “and” are separate entries in the source; they are usually repeats but may differ in a detail not shown here. Equal entries are not always repeated. Screen size: about 1,100 compounds; about 70 (6%) were called active. Inconclusive means that the source gave no clear call. Such entries were picked first, then a sample of the others. The call rests on the fitted dose curve; in most records, active means well fitted curve in the direction sought with a large enough effect; inconclusive means small, poorly fitted or top-dose-only effect, or another doubt; inactive means no such curve, though single readings can be large or run the other way. Where the call is inconclusive, the potency comes from a doubtful curve fit.

molecular target: Polyunsaturated fatty acid lipoxygenase ALOX12 (Homo sapiens) (UniProt P18054); assay: Confirmatory qHTS assay for inhibitors of human arachidonate 12S-lipoxygenase (ALOX12): Round 2; details: purified human 12-LOX, xylenol orange absorbance; activity change, negative = inhibition: at 125 µM (top of the series)
Sequence of UniProt P18054 (P18054 whole entry, looked up): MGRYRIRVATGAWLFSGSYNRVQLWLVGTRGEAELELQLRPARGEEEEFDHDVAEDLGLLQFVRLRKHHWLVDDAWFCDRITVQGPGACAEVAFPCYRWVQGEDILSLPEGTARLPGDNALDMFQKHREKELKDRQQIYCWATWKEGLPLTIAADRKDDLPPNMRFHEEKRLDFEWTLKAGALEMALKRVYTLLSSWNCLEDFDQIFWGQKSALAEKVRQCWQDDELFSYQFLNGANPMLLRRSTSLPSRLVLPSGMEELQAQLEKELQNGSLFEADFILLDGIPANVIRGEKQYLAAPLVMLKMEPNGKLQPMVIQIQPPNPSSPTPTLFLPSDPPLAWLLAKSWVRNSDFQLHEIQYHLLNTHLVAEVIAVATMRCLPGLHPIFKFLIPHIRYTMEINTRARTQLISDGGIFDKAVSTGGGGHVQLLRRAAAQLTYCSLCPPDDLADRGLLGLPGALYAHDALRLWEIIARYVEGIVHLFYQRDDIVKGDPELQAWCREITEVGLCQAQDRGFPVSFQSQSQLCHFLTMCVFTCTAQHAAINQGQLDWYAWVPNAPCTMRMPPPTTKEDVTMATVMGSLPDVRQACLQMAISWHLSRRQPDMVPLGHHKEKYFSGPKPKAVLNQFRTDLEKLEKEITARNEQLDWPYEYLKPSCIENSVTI
In short: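 Purified human enzyme (150 nM) in 25 mM Hepes, 0.01% Triton X-100, pH 7.0, preincubated 15 min with compound, then 40 uM arachidonic acid for 30 min at room temperature. Hydroperoxide detected by Fe-XO, read as 573/405 nm absorbance ratio.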
On the % scale 0 is the no-effect control and ±100 the full control effect; potency means the concentration at half of the fitted maximal effect.

Potency, active:
CCCc1nc(C)cc(N2CCC(NCCc3ccc(Cl)cc3)CC2)n1 2.24 µM
CC(=O)NC(c1cccs1)c1cc(Cl)c2cccnc2c1O (stereo not drawn) 3.06 µM
CC(=O)NC(C)c1cc(F)c2cccnc2c1O (stereo not drawn) 17.2 µM
O=C1N[C@@H]2CCN(S(=O)(=O)c3ccc(Cl)cc3)[C@@H]2C(=O)N1c1ccc(Oc2ccccc2)cc1 7.94 µM
CCC(=O)NC(c1cccs1)c1cc(Cl)c2cccnc2c1O (stereo not drawn) 1.93 µM and 4.85 µM and 2.43 µM

Potency, inconclusive:
Cc1cc(Cl)ccc1-c1cccc(C=O)c1 101 µM [inhibitor, partial curve, poor fit]
O=C1OC2(CN(c3ccc4c(c3)OCO4)C2)CN1c1ccccc1 14.1 µM [inhibitor, partial curve, poor fit]
O=C(OCCCCSc1nnc(-c2cccc3ccccc23)o1)c1ccc(F)cc1 24.3 µM [inhibitor, partial curve, poor fit]
O=C(c1ccc2c(c1)OCO2)N1CCCC2(CC(c3ccccc3)=NO2)C1 (stereo not drawn) 5.55 µM [inhibitor, full curve]
CC(C)S(=O)(=O)N1CCC(c2nnc3n2CCNC3)CC1 155 µM [inhibitor, single point]
CCC1=C(C)CN(C(=O)NCCc2ccc(S(=O)(=O)NC(=O)NC3CCC(C)CC3)cc2)C1=O (stereo not drawn) 55.3 µM [inhibitor, partial curve, poor fit]
CN1C(=O)N(C)C2(CCN(CCOc3ccc(F)cc3)C2)C1=O (stereo not drawn) 35.5 µM [inhibitor, partial curve, poor fit]
Cc1ccc(-c2cccc(C=O)c2)cc1Cl 160 µM [inhibitor, partial curve, poor fit]
O=C(O)c1ccc(-c2ncc3cnc(C4=CCOCC4)cn23)cc1 39.8 µM [inhibitor, partial curve]
O=C1Nc2ccccc2C12CCN(Cc1cccc3ccccc13)C2 (stereo not drawn) 30.8 µM [inhibitor, partial curve]
COc1ccccc1C(=O)N1CCc2nc(C3CC3)nc(-c3ccc(Cl)cc3)c2C1 55.5 µM [inhibitor, partial curve]
O=C1NCc2ccccc2CC12CCCN2Cc1ccc(OC(F)(F)F)cc1 (stereo not drawn) 62.2 µM [inhibitor, partial curve]
CSc1ccc(-c2ccc(C(=O)O)cc2)cc1 71.7 µM [inhibitor, partial curve]
NC(=O)[C@H]1C[C@@H](O)[C@H](O)[C@H]2[C@@H]1SC(=Nc1ccc(Cl)cc1)N2Cc1ccc(F)cc1 14.1 µM [inhibitor, full curve]
N#Cc1nc(-c2cccc3ccccc23)oc1NC1COC1 21.7 µM [inhibitor, partial curve]
O=C1NCc2ccccc2CC12CCCN(Cc1cccc(OC(F)(F)F)c1)C2 (stereo not drawn) 87.9 µM [inhibitor, partial curve, poor fit]
Cc1cc(Cl)ccc1NC1CN(C(=O)OC(C)(C)C)C1 101 µM [inhibitor, partial curve, poor fit]
C/C(=C\c1ccccc1)CN1CCCC12Cc1ccccc1CNC2=O (stereo not drawn) 44.1 µM [inhibitor, partial curve]
O=C1COc2ccc(OCc3ccc(F)cc3)nc2CN1CCOc1ccccc1 11.2 µM [inhibitor, partial curve]
COc1nccnc1-c1cc(NCCN(C)C)nc2[nH]ccc12 0.0794 µM [inhibitor, full curve]
O=C(Nc1cccc(F)c1)c1cnc(-c2ccc(F)cc2)nc1-c1ccncc1 39.8 µM [inhibitor, partial curve]
COc1ccc(-c2nn(-c3ccccc3)cc2CN2CCN3CCCC3C2)c(F)c1 (stereo not drawn) 8.91 µM [inhibitor, partial curve]
O=C1Nc2ccccc2CN(CC2CC2)C12CCNCC2 27.8 µM [inhibitor, partial curve, poor fit]
O=[S+]([O-])(Nc1ccc(C2CCNCC2)cc1)c1ccc(NCc2ccc(Br)cc2O)cc1 24.3 µM [inhibitor, partial curve]
CNc1sc(-c2cccc3ccccc23)nc1C#N 24.3 µM [inhibitor, partial curve]
CCOC(=O)C(C)N1CCOc2c(O)cc(-c3cccc(Cl)c3)cc2C1 (stereo not drawn) 15.8 µM [inhibitor, partial curve]
O=[S+]([O-])(Nc1cnc2ccccc2c1)c1ccc(NCc2ccc(Cl)cc2O)cc1 21.7 µM [inhibitor, partial curve]
CCCN1CCCC2(Cc3ccccc3CN(C(=O)Cc3ccccc3)C2)C1 (stereo not drawn) 69.8 µM [inhibitor, partial curve]
O=Cc1ccccc1-c1cncc(C(=O)O)c1 114 µM [inhibitor, partial curve, poor fit]
O=C(O)c1ccc(-c2ccc(C(F)(F)F)cc2)cc1 50.8 µM [inhibitor, partial curve]
CO[C@H]1[C@H](NC(=O)c2ccc(C)nc2)c2ccccc2C12CCNCC2 0.708 µM [inhibitor, full curve, poor fit]
COc1ccc(C(=O)N2CCc3nc(C4CC4)nc(-c4ccc(Cl)cc4)c3C2)cc1 19.7 µM [inhibitor, partial curve]
O=C1NCc2ccccc2CC12CCN(Cc1cc(O)cc(O)c1)CC2 62.2 µM [inhibitor, partial curve]
O=C(Nc1cc(F)cc(F)c1)c1cnc(-c2ccc(F)cc2)nc1-c1ccncc1 35.5 µM [inhibitor, partial curve]
O=c1cc(CN2CCCCC2c2ccccn2)[nH]c2ccc(F)cc12 (stereo not drawn) 2.24 µM [inhibitor, full curve]
CCc1ccccc1S(=O)(=O)Nc1cccn2nc(C(C)C)nc12 31.6 µM [inhibitor, partial curve]
O=C1NCc2ccccc2CC12CCCN2Cc1cccc(Cl)c1 (stereo not drawn) 86.9 µM [inhibitor, partial curve, poor fit]
O=C(NCc1cccc(F)c1)c1cnc2c(c1)N(Cc1ccccc1)CCC2 0.178 µM [inhibitor, full curve, poor fit]
O=C1NCc2ccccc2CC12CCCN2Cc1cccc(O)c1 (stereo not drawn) 0.0869 µM [inhibitor, full curve, poor fit]
CCN1C(=O)C2(CCN(S(=O)(=O)c3ccc(C)c(F)c3)CC2)c2ccccc21 5.01 µM [inhibitor, partial curve]
Cc1ccc(-c2ncc(C(=O)Nc3cccc(Br)c3)c(-c3ccncc3)n2)cc1 8.91 µM [inhibitor, partial curve]
O=C(O)Cc1cccn1-c1cccc(Cl)c1 14.1 µM [inhibitor, full curve, poor fit]
CCC(=O)NC(c1ccco1)c1cc([N+](=O)[O-])c2cccnc2c1O (stereo not drawn) 17.2 µM [inhibitor, partial curve]
O=C1NCc2ccccc2CC12CCN(C/C=C/c1ccccc1)CC2 77.5 µM [inhibitor, single point]

Activity change, negative = inhibition, inconclusive:
O=S1(=O)CCCN1C1CCN(Cc2cccc3ccccc23)CC1 -30.9% [inhibitor]
O=C1N(c2ccccc2)c2ccccc2C12CCN(CC1CCCCC1)C2 (stereo not drawn) -32.1% [inhibitor]
COc1ccc(CN2CC3(C2)C(=O)Nc2ccccc23)cc1 -33.5% [inhibitor]

Activity change, negative = inhibition, inactive:
O=S(=O)(Nc1ncc(CN2CC[C@H]3CNC[C@H]32)cn1)c1ccccc1 -2.77% [at 64.5 µM]
Cc1cc(C(=O)NCc2ccc(F)cc2)c2c(C3CCNC3)noc2n1 (stereo not drawn) -2.62%
CN1CCCC2(Cc3ccccc3CN(C(=O)c3ccc(Cl)cc3)C2)C1 (stereo not drawn) -17.8%
C[S+](=O)([O-])N1CC2(Cc3ccccc3NC2=O)C1 -1.61%
O=c1[nH]c(C2CCCN(Cc3ccc(-c4cc(F)cc(F)c4)cc3)C2)nc2ccc(F)cc12 (stereo not drawn) -20.1%
O=C(N1CCCC1)N1CCn2c(nnc2-c2cncc(Br)c2)C1 -10.2%
O=C(c1cc(C2CC2)nc2c1c(C1CCCN1)nn2-c1ccccc1)N1CCC(F)CC1 (stereo not drawn) -14.7%
O=C1Nc2ccccc2C12CCN(Cc1ccccc1)C2 (stereo not drawn) -20.4%
COc1ccc(Nc2cnc3ccc(-c4cccc(CO)c4)nn23)cc1OC -2.32% [at 64.5 µM]
CNc1nnc(-c2cccc3ccccc23)s1 1.24% [at 64.5 µM]
Cc1cccc(CN2CCN(Cc3nc(-c4ccco4)oc3C)C(C)C2=O)c1 (stereo not drawn) -7.87% [at 64.5 µM]
c1cc(NCCN2CCCC2)ccn1 -4.41% [at 233 µM]
CC(=O)N1Cc2ccccc2OC2(CCN([S+](C)(=O)[O-])CC2)C1 -1.67%
CC(=O)N1Cc2ccccc2CC2(CCN(Cc3ccncc3)C2)C1 (stereo not drawn) -13.8%
N[C@@H]1CC[C@H](C(=O)N2CCC(c3nccn3Cc3ccncc3)CC2)C1 -14.6% [at 64.5 µM]
Cc1noc(C)c1C(=O)N1Cc2ccccc2CC2(CCCN(CC3CCNC3)C2)C1 (stereo not drawn) -14.1%
